The full ranking holds about 33,000 sequences; the median of “E-score (-0.5 to 0.5)” is about -0.035, and the highest 2% start at about 0.34. The list shows a part of the results.
What follows are sequences tested against T1, Mot3 (UniProt P54785) (assay: PBM E-score (8-mer binding enrichment) (E-score (-0.5 to 0.5)); higher = stronger / more preferred TF binding; most listed sequences are background and not binding sites). Conditions: protein concentration: 200 nM; construct: GST-full length.
T1 sequence: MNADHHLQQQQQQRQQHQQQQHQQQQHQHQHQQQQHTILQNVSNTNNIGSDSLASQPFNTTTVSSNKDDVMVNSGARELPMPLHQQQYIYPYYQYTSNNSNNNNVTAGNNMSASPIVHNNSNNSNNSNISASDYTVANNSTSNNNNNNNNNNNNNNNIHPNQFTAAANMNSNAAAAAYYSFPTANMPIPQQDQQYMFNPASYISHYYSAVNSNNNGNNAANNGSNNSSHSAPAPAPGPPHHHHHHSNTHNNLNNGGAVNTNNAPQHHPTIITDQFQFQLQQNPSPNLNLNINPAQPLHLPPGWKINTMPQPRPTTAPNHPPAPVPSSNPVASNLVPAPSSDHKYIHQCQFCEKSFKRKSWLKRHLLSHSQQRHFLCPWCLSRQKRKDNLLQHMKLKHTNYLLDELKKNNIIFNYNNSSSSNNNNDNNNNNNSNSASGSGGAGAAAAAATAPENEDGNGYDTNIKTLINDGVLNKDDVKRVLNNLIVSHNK
How it was run: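 Masliner-normalised scans of fluorescent anti-GST signal were the basis for scoring. That signal came from GST-tagged yeast transcription factors applied at about 100-200 nM to double-stranded universal all-10-mer Agilent arrays on fresh or once-stripped slides. Each ungapped eight-base word, pooled with its reverse complement, received an E-score from the Universal PBM Analysis Suite.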

Row | Sequence | PBM E-score
1 | AAAATCTA | 0.121
2 | ACGGAGGC | 0.00578
3 | GGAGTTGA | -0.0647
4 | GATCACGC | 0.0934
5 | TCCCGCAA | 0.0144
6 | CGTGACGA | -0.00942
7 | ACACTACA | 0.332
8 | ACTCTCCG | -0.0347
9 | CTCCTAGC | -0.0699
10 | ACGAATAG | 0.0127
11 | CCAGTAGG | -0.00042
12 | TATTACCA | 0.162
13 | TAGTACGA | -0.0632
14 | CCCCCCTC | -0.4
15 | TATAGTAA | 0.121
16 | ACCAATTA | 0.157
17 | GACAACAC | 0.261
18 | AAGCGCAT | -0.12
19 | CGAGTCGC | -0.329
20 | ACTCTTAT | 0.0679
21 | TATACAGA | 0.109
22 | CGCATACA | 0.0684
23 | GCGGTAGA | -0.181
24 | GACCGTTA | -0.14
25 | CATCGCAC | -0.18

Row | Sequence | PBM E-score
26 | TCAGGACA | -0.0495
27 | CGCGTCTC | 0.012
28 | CAGTACCC | -0.15
29 | ACCCACTG | -0.204
30 | ACCTAAAA | 0.215
31 | GGCGTTCA | -0.0928
32 | CCTGGTAA | -0.0215
33 | ATTGATAA | -0.0626
34 | CCTAGTAG | 0.143
35 | CCCGACGA | -0.191
36 | CACCATGC | -0.274
37 | GAGTTTTA | 0.0998
38 | AGCACAAA | 0.129
39 | ACCATCGT | -0.0908
40 | CAGATGGG | -0.164
41 | CAAGACGG | -0.246
42 | ACCGAATA | 0.0681
43 | GTCCCGGA | -0.171
44 | GCATGAAC | 0.00175
45 | GCGGAATA | 0.0122
46 | CGGCGTTC | -0.112
47 | CGTAGCAA | -0.0416
48 | CGGTAGGC | 0.0651
49 | GTGGCTTA | -0.00462
50 | GAGGCTTA | -0.166

Row | Sequence | PBM E-score
51 | CGCAGTCC | -0.23
52 | CTTCCAAC | 0.0652
53 | TTTTAAAA | 0.115
54 | AGTGTACA | 0.273
55 | AGGGGAGA | -0.14
56 | GCACGCAC | -0.102
57 | TCACGCGA | 0.0705
58 | AACGGGAG | 0.06
59 | CCCCTTAA | -0.0659
60 | TCTCGGCA | -0.155
61 | ACACATAA | 0.271
62 | CCTCGAGA | -0.00989
63 | ACCTCACT | -0.11
64 | ACACGTAG | 0.287
65 | TAGACGGA | -0.142
66 | AAGCTGCT | -0.0746
67 | GCGGGACC | -0.243
68 | GAGCTTTA | -0.0371
69 | ATGTCAGA | 0.0802
70 | AGATATCC | -0.144
71 | AAATGATT | 0.113
72 | GTAAAGGA | 0.257
73 | CACTTGAG | -0.231
74 | ACCCCCTA | -0.298
75 | AGGGACAA | -0.26

Row | Sequence | PBM E-score
76 | ACGATCGC | -0.0801
77 | AGCGAACA | -0.0143
78 | CTACTGGA | -0.174
79 | TCCGTGAA | 0.0477
80 | GGGCCTTA | -0.0405
81 | GCCGGGCC | -0.225
82 | ACGAATAA | 0.0326
83 | GCGAGGCC | -0.309
84 | ACCAACCG | -0.16
85 | GACCAGAA | -0.0574
86 | GCAGAACA | 0.121
87 | GTACGAAC | 0.0908
88 | AGCCCCCA | -0.18
89 | TCCTTGCA | 0.00059
90 | AGGTCTCG | -0.126
91 | GTTTCGAA | -0.124
92 | GCGCTCCC | -0.343
93 | CGCCGGGA | -0.395
94 | CATGTATA | 0.376
95 | TCCTGGCA | 0.00434
96 | ATGTTTGA | 0.155
97 | CACGAACA | 0.114
98 | ATAACGTA | 0.26
99 | ATGCTGTG | 0.183
100 | TAAGAGCA | 0.0808

Row | Sequence | PBM E-score
101 | CCCCTGGA | -0.289
102 | CAATAAAG | -0.124
103 | ACGCGCAT | 0.122
104 | GCTTAGAC | -0.109
105 | CCAAGGCC | -0.14
106 | ATGAGTGG | -0.24
107 | GCGAATCA | -0.121
108 | GACAATTA | 0.118
109 | ACGAGGCG | 0.0932
110 | AGATAGCT | -0.164
111 | CCGAGGAG | -0.223
112 | CGGAGTAG | -0.199
113 | AGTTGAAC | -0.065
114 | TGCTCACA | -0.033
115 | AGTGTTTC | 0.0895
116 | ATACTCGG | -0.127
117 | AAGAATAC | 0.176
118 | GCGCACGC | -0.268
119 | ATTCGAAC | 0.103
120 | GCAGGCGC | 0.361
121 | AAGGCCCC | 0.169
122 | GACTCTGA | -0.183
123 | GTCGGGGA | -0.0572
124 | TGGATGAA | 0.0773
125 | CGCCCCCG | -0.351

Row | Sequence | PBM E-score
126 | ACTTACGC | 0.244
127 | CGGGGACG | -0.163
128 | AGTGTAAC | 0.128
129 | GCCACACA | -0.182
130 | CACGCACA | 0.211
131 | GAAGAATA | 0.116
132 | ACTGTGTC | 0.112
133 | AATTAGGG | -0.075
134 | ACGAACAA | 0.284
135 | CAATGGTA | -0.126
136 | CTGGCTAA | -0.174
137 | AGGGAGCC | -0.0527
138 | ACAATCAC | 0.0115
139 | GACTCACA | -0.0406
140 | CTGAACAG | -0.0714
141 | AGTCACTC | -0.0206
142 | AGTTGATA | 0.0115
143 | CTCGATCA | -0.121
144 | ACGCGAAA | 0.112
145 | CAGATAAG | -0.00474
146 | GGTATTCA | -0.0225
147 | AGCACTCC | -0.0737
148 | CACCTGTC | -0.194
149 | ACAGGGCA | 0.205
150 | GTCTTATA | -0.0865

Row | Sequence | PBM E-score
151 | CCCGCTGC | -0.0487
152 | CGCGCTGC | -0.0871
153 | GCGCTGCA | -0.162
154 | GTCCCGCA | -0.155
155 | CTGGAACA | 0.115
156 | ACGGTCCC | -0.368
157 | AGCAAACC | -0.0227
158 | GCCGGCTA | -0.171
159 | CGGTCACG | -0.286
160 | AGCTAAAC | -0.0893
161 | CGTCCTCC | -0.293
162 | CGTTATGA | -0.0228
163 | AAAACTGT | 0.0347
164 | AAACTTAC | 0.221
165 | ATCTAGTC | -0.164
166 | GACGCTAA | -0.251
167 | GCACTGCA | -0.0192
168 | ATGGGATC | -0.0784
169 | CCCCACCA | -0.182
170 | AGAGTCGA | -0.216
171 | CTGACGAA | -0.0256
172 | GCACGCTA | -0.0188

— the supplement of paper PMC3334620
